From the supplement of paper PMC4723716
± gives the uncertainty stated by the source. Over roughly 9,900 compounds, “viability index relative to DMSO control” has its median near 1; the lowest 2% begin near 0.85. Some of the results follow.

These compounds were tested on Plasmodium falciparum NF54 stage V gametocytes (assay: viability index relative to DMSO control (fraction); higher = less gametocyte killing). Conditions: 2.5 µM, library set: Broad Institute DOS, incubation time: 72 h.
In short: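 P. falciparum NF54 stage V gametocytes in serum-free screening medium (0.75% gametocytemia, 1.25% hematocrit, 10 µl) were incubated with compound at 2.5 µM in 1,536-well plates for 72 hr at 37°C under low oxygen. Then 3 µl of 2.5 µM MitoTracker Red CMXRos plus 0.13% saponin was added for one to two hours. One field per well was imaged, 20–70 µm2 red particles were counted, and the viability index was the count divided by the plate mean of DMSO wells.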

Structure (SMILES) | viability index
CN1C[C@H]2[C@@H](c3ccccc31)[C@H](CO)N2Cc1ccccc1Cl | 1.03 ± 0.064
C[C@H]1CN([C@@H](C)CO)C(=O)c2ccccc2-c2ccccc2CO[C@H]1CN(C)Cc1cccnc1 | 0.97 ± 0.24
COc1ccccc1CNC(=O)C[C@@H]1C=C[C@H](NC(=O)CC2CC2)[C@H](CO)O1 | 0.989 ± 0.039
CCS(=O)(=O)N[C@@H]1CC[C@H](CC(=O)NCc2ccc(Cl)cc2)O[C@@H]1CO | 1.06 ± 0.029
CC(C)N(C[C@@H]1[C@H](c2ccccc2)[C@@H](CO)N1S(C)(=O)=O)C(=O)CN(C)C | 1.01 ± 0.1
CO[C@H]1CN(C)C(=O)c2cc(NS(=O)(=O)c3cn(C)cn3)ccc2OC[C@@H](C)NC[C@@H]1C | 0.994 ± 0.021
CN(C)CC(=O)N[C@H]1CC[C@@H](CCNC(=O)C2CCC2)O[C@H]1CO | 1.11 ± 0.058
C[C@H]1CN([C@@H](C)CO)C(=O)c2cc(N(C)C)ccc2O[C@H]1CN(C)Cc1ccc(Oc2ccccc2)cc1 | 0.959 ± 0.1
CS(=O)(=O)N1CC(=O)N2[C@H](CO)[C@H](c3ccc(C#Cc4ccc(F)cc4)cc3)[C@@H]2C1 | 1.017 ± 0.0076
O=C(N[C@@H]1CC[C@@H](CCn2cc(-c3ccccc3F)nn2)O[C@H]1CO)c1ccc2c(c1)OCO2 | 1.18 ± 0.042
COc1ccc2c3c([nH]c2c1)[C@H](CO)N(CC1CC1)C[C@]31CCN(CC1)S(=O)(=O)c1cccc(F)c1 | 1.04 ± 0.087
Cc1cccc(-c2ccc([C@H]3[C@H]4CNC[C@@H]3N4Cc3cccc(F)c3)cc2)c1 | 1.03 ± 0.038
COc1cccc(S(=O)(=O)Nc2ccc3c(c2)[C@@H]2C[C@@H](CC(=O)NC4CCCCC4)O[C@@H](CO)[C@@H]2O3)c1 | 0.9585 ± 0.0026
COc1ccc2c3c([C@@H](CO)N(Cc4nccs4)C[C@]33CCN(CC4CCCC4)CC3)n(C)c2c1 | 0.848 ± 0.029
O=C(C[C@H]1C=C[C@H](NS(=O)(=O)c2ccccc2)[C@H](CO)O1)NCCN1CCCCC1 | 1.14 ± 0.094
C/C=C/c1ccc([C@@H]2[C@@H](CO)N(C(C)=O)[C@@H]2CNC(=O)c2ccccc2)cc1 | 0.932 ± 0.062
N#C[C@H]1[C@H](c2ccc(-c3cccnc3)cc2)[C@@H](CO)N1C(=O)C1CCOCC1 | 1.12 ± 0.049
O=S(=O)(c1cccc(F)c1)N1[C@@H]2CNC[C@H]1[C@H]2c1ccc(-c2ccccc2F)cc1 | 1.06 ± 0.051
CO[C@H](CN(C)S(=O)(=O)c1ccc(C)cc1)[C@@H](C)CN(C(=O)Nc1ccccc1F)[C@@H](C)CO | 1.01 ± 0.032
COc1ccc2c3c([nH]c2c1)[C@H](CO)N(C[C@]31CN(C1)C(=O)NC(C)C)C(=O)C1CCOCC1 | 1.04 ± 0.12
C[C@@H]1CCCCO[C@@H](CN(C)Cc2ccncc2)[C@@H](C)CN([C@H](C)CO)C(=O)c2cc(NS(=O)(=O)c3ccc(Cl)cc3)ccc2O1 | 1.08 ± 0.021
C[C@H]1CCCCO[C@H](CN(C)S(=O)(=O)c2ccc(F)cc2)[C@@H](C)CN([C@@H](C)CO)C(=O)c2cc(N(C)C)ccc2O1 | 1.09 ± 0.17
N#Cc1cccc(-c2ccc([C@@H]3[C@@H](CO)N4CCCCN(Cc5ccccc5F)C[C@@H]34)cc2)c1 | 0.943 ± 0.044

Structure (SMILES) | viability index
CN(C)C(=O)C[C@@H]1C[C@@H]2c3cc(NC(=O)c4cccnc4)ccc3O[C@@H]2[C@@H](CO)O1 | 1.044 ± 0.0079
Cc1ccc(S(=O)(=O)Nc2ccc3c(c2)CC(=O)N([C@@H](C)CO)C[C@H](C)[C@@H](CN(C)S(=O)(=O)c2ccccc2)O3)cc1 | 0.909 ± 0.043
Cc1ccccc1-c1ccc([C@@H]2[C@@H]3CN(Cc4ccc5c(c4)OCO5)C[C@H]2N3)cc1 | 1.04 ± 0.061
O=C(Nc1ccc2c(c1)[C@H]1C[C@H](CC(=O)N3CCOCC3)O[C@H](CO)[C@H]1O2)Nc1ccccc1F | 1.1 ± 0.055
O=C(Cc1cccnc1)N1[C@H](CO)[C@H](c2ccccc2)[C@H]1CNCC1CCC1 | 1.05 ± 0.069
CCCC#Cc1ccc([C@H]2[C@H](C#N)N(C(=O)CN3CCOCC3)[C@H]2CO)cc1 | 1.1 ± 0.048
COc1ccc2c3c([nH]c2c1)[C@H](CO)N(C[C@]31CCN(CC1)S(=O)(=O)c1cccc(C)c1)C(=O)Nc1cccc(F)c1 | 0.97 ± 0.026
O=C(C[C@@H]1CC[C@@H]2[C@H](COC[C@H](O)CN2C(=O)c2ccncc2)O1)NCc1cc(F)cc(F)c1 | 1.07 ± 0.017
COc1ccccc1C(=O)N1C[C@@H]2[C@H](c3ccccc31)[C@H](CO)N2CC1CCCC1 | 0.981 ± 0.082
CC(C)(C)S(=O)N1Cc2cc(C(=O)NCc3ccc4c(c3)OCO4)nc(-c3cccc(-c4cccc(F)c4)c3)c2[C@@H]1CCO (some centres undefined) | 1.04 ± 0.015
C[C@H](CO)N1C[C@H](C)[C@@H](CN(C)S(=O)(=O)c2ccccc2)OCCCC[C@H](C)Oc2ccc(NC(=O)Nc3ccc4c(c3)OCO4)cc2C1=O | 1.01 ± 0.025
C[C@H](CO)N1C[C@H](C)[C@H](CN(C)C(=O)Nc2ccc(F)cc2)Oc2ccc(NC(=O)c3ccncc3)cc2CC1=O | 0.973 ± 0.019
CO[C@H]1CC[C@H]2CCOc3ccc(C#N)cc3C(=O)N(C)CC3(CCCCC3)CC(=O)N(C)C[C@H]1O2 | 1.04 ± 0.046
COCC(=O)N1CC2(C1)[C@H](c1ccc(-c3cccc(F)c3)cc1)[C@H](CO)N2C(=O)C1CC1 | 1 ± 0.084
COc1ccc(S(=O)(=O)Nc2ccc3c(c2)C(=O)N([C@@H](C)CO)C[C@@H](C)[C@@H](CN(C)C(=O)Nc2c(C)noc2C)OCCCC[C@@H](C)O3)cc1 | 1.14 ± 0.11
COc1ccc2c3c([nH]c2c1)[C@H](CO)N(C[C@]31CN(Cc2cc(F)ccc2F)C1)C(=O)Nc1ccc(F)cc1 | 0.973 ± 0.042
COc1ccc(S(=O)(=O)N(C)C[C@@H]2OCCCC[C@@H](C)Oc3ccc(NC(=O)Cc4ccccc4)cc3C(=O)N([C@@H](C)CO)C[C@@H]2C)cc1 | 1.01 ± 0.16
C/C=C/c1ccc([C@H]2[C@H](CO)N(C(C)=O)[C@H]2CN(CC)C(=O)CN(C)C)cc1 | 1.102 ± 0.0012
COC(=O)C[C@@H]1CC[C@@H]2[C@@H](COc3ccc(NC(=O)Nc4c(C)noc4C)cc3C(=O)N2C)O1 | 0.921 ± 0.1
CO[C@H]1CC[C@H]2CCOc3c(C#N)cccc3C(=O)N(C)C[C@@H](c3ccccc3)CC(=O)N(C)C[C@@H]1O2 | 1.02 ± 0.11
Cc1ccc(S(=O)(=O)N2C[C@@H](O)COC[C@@H]3O[C@@H](CC(=O)NCc4ccc5c(c4)OCO5)CC[C@H]32)cc1 | 1.08 ± 0.07
C[C@H]1CN([C@@H](C)CO)S(=O)(=O)c2ccc(C#Cc3cccc(F)c3)cc2O[C@H]1CN(C)S(=O)(=O)c1cn(C)cn1 | 1.04 ± 0.054
CN1C(=O)c2cc(NC(=O)Nc3ccccc3Cl)ccc2OC[C@H]2O[C@@H](CC(=O)O)CC[C@H]21 | 0.985 ± 0.12

Structure (SMILES) | viability index
CCS(=O)(=O)Nc1ccc2c(c1)C(=O)N(C)[C@H]1CC[C@H](CC(=O)N[C@H]3CCN(Cc4ccccc4)C3)O[C@H]1CO2 | 1.09 ± 0.17
COc1ccc(C(=O)N2C[C@H]3[C@@H](c4ccccc42)[C@H](CO)N3Cc2ccccc2Cl)cc1 | 1.02 ± 0.0079
C[C@@H]1CCCCO[C@@H](CN(C)C(=O)CCC(F)(F)F)[C@H](C)CN([C@H](C)CO)C(=O)c2cc(NC(=O)C3CCCCC3)ccc2O1 | 1.09 ± 0.032
O=C(C[C@H]1C[C@H]2c3cc(NS(=O)(=O)c4ccccc4)ccc3O[C@H]2[C@H](CO)O1)NCC(F)(F)F | 1.15 ± 0.062
COc1cccc(-c2ccc([C@H]3[C@@H](CO)N(C(=O)Cc4ccncc4)[C@H]3C#N)cc2)c1 | 1.02 ± 0.044
Cc1noc(C)c1NC(=O)Nc1cccc2c1O[C@H](CN(C)Cc1ccc(C(=O)Nc3ccccc3N)cc1)[C@@H](C)CN([C@H](C)CO)C2=O | 0.961 ± 0.023
O=C(C[C@H]1C=C[C@@H](NC(=O)c2ccncc2)[C@@H](CO)O1)NCC1CC1 | 1.08 ± 0.03
O=C(C[C@H]1CC[C@@H]2[C@H](COC[C@@H](O)CN2Cc2nccs2)O1)NCc1ccccc1Cl | 1 ± 0.026
COc1ccccc1C(=O)N1C[C@H]2[C@@H](c3ccccc31)[C@@H](CO)N2C(=O)Cc1ccccc1 | 1.07 ± 0.015
CC(C)COC(=O)N(C)C[C@@H]1OCc2ccccc2-c2ccccc2C(=O)N([C@H](C)CO)C[C@@H]1C | 0.982 ± 0.061
C[C@@H](NC(=O)C[C@@H]1CC[C@H]2[C@@H](COC[C@H](O)CN2C(=O)Nc2cccc(Cl)c2)O1)c1ccccc1 | 1.06 ± 0.028
C/C=C/c1ccc2n(c1=O)C[C@H]1[C@H](CO)[C@@H](C(=O)N(C)C)N(C(=O)CC)[C@@H]21.C/C=C\c1ccc2n(c1=O)C[C@H]1[C@H](CO)[C@@H](C(=O)N(C)C)N(C(=O)CC)[C@@H]21 | 1.059 ± 0.005
CN(C)C(=O)c1cccc(-c2ccc([C@H]3[C@@H]4CN(C(=O)CN5CCOCC5)C[C@H]3N4)cc2)c1 | 1.08 ± 0.014
OC[C@@H]1[C@H](c2ccc(Br)cc2)[C@H]2CNCCCCN12 | 1.05 ± 0.041
COCCN(C[C@H]1N[C@H](CO)[C@@H]1c1ccc(-c2cccc(C#N)c2)cc1)C(C)=O | 1.06 ± 0.031
CCN(C[C@@H]1[C@H](c2ccccc2)[C@@H](CO)N1CC1CC1)C(=O)c1ccccn1 | 1.05 ± 0.019
O=C(NC1CCCC1)[C@H]1[C@H](CO)[C@H]2Cn3c(cccc3=O)[C@H]2N1CCc1ccccc1 | 1.013 ± 0.0097
CO[C@@H]1CN(C)C(=O)c2cc(NS(=O)(=O)CC(F)(F)F)ccc2OC[C@H](C)NC[C@H]1C | 1.05 ± 0.029
Cc1noc(C)c1C(=O)N(C)C[C@H]1OCc2ccccc2-c2ccccc2C(=O)N([C@@H](C)CO)C[C@H]1C | 0.977 ± 0.15
CN1CCN(C(=O)C[C@@H]2CC[C@H]3[C@@H](COC[C@@H](O)CN3C(=O)Nc3ccc4c(c3)OCO4)O2)CC1 | 0.9371 ± 0.00097
COc1ccc(C(=O)N2C[C@H]3[C@@H](c4ccccc42)[C@H](CO)N3C(=O)Cc2ccccn2)cc1 | 0.999 ± 0.18
C[C@@H]1CN([C@@H](C)CO)C(=O)c2cc(NC(=O)C3CCCCC3)ccc2O[C@@H]1CN(C)C(=O)Nc1ccc(C(F)(F)F)cc1 | 0.967 ± 0.036
CN(C)C(=O)c1ccc(-c2ccccc2[C@H]2[C@@H](C#N)N(C(=O)C3CC3)[C@@H]2CO)cc1 | 1.13 ± 0.059
